Consider 10 substances from the supplement of paper PMC8728848.

The full list was thinned out, with the strongest signals kept by preference.

Common to all, as to assay: glycan array binding signal (z-score within array); higher = stronger binding
Common to all, as to details: glycan notation: IUPAC condensed, linker removed

Assay [1] deals with Gal(b1-3)[Neu5Ac(b2-6)]GlcNAc. The method, boiled down:
(§1)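 Negative Z-scores can be read as non-binding. The Z-score is calculated within each array and then averaged across arrays of one protein sequence at different concentrations or buffers and across linkers. Arrays, 3228 in all, were curated from the Consortium for Functional Glycomics database and kept only where the protein sequence was available.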

For assay [2], the system named is Gal(b1-4)GlcNAc(a1-6)Gal(b1-4)GlcNAc. The method, boiled down: as §1
The test system of assay [3] is Gal(b1-4)GlcNAc(b1-2)Man(a1-3)[Gal(b1-4)GlcNAc(b1-2)Man(a1-6)]Man(b1-4)GlcNAc(b1-4)GlcNAc. A digest of the protocol: as §1
Assay [4] relates to Gal(b1-4)GlcNAc(b1-2)Man(a1-3)[Gal(b1-4)GlcNAc(b1-2)Man(a1-6)][Gal(b1-4)GlcNAc(b1-4)]Man(b1-4)GlcNAc(b1-4)[Fuc(a1-6)]GlcNAc. The method, boiled down:
as §1

In assay [5] the test system is Gal(b1-4)GlcNAc(b1-2)Man(a1-3)[GlcNAc(b1-4)][Gal(b1-4)GlcNAc(b1-2)Man(a1-6)]Man(b1-4)GlcNAc(b1-4)GlcNAc. The method, boiled down:
as §1

The subject of assay [6] is Gal(b1-4)GlcNAc(b1-2)[Gal(b1-4)GlcNAc(b1-4)]Man(a1-3)[Gal(b1-4)GlcNAc(b1-2)Man(a1-6)]Man(b1-4)GlcNAc(b1-4)GlcNAc. The method, boiled down: as §1
Assay [7] relates to Gal(b1-4)GlcNAc(b1-2)Man(a1-6)Man(b1-4)GlcNAc(b1-4)GlcNAc. The method, boiled down:
as §1

As for “H-Ficolin (Homo sapiens) (chain not printed)”, the “glycan array binding signal (z-score)” value in assay [1] is -0.859.

Consider “CLEC-2 (Homo sapiens) (chain not printed)”, for which the “glycan array binding signal (z-score)” value in assay [2] is -0.455.

“L-Ficolin (Homo sapiens) (chain not printed)”: in assay [2], the “glycan array binding signal (z-score)” value was 3.18.

As for “Serum Amyloid P component (Homo sapiens) (chain not printed)”, the “glycan array binding signal (z-score)” value in assay [3] was -0.695.

Regarding “M-Ficolin G221F A256V (Homo sapiens) (chain not printed)”, the “glycan array binding signal (z-score)” value in assay [3] worked out at 1.51.

For the substance “Thrombomodulin Extracellular (Homo sapiens) (chain not printed)”, in assay [4], the “glycan array binding signal (z-score)” value was -0.795.

FGF2 (chain not printed): the “glycan array binding signal (z-score)” value in assay [4] worked out at 0.213.

Take “Gal 3 (Homo sapiens) (chain not printed)”: the “glycan array binding signal (z-score)” value in assay [5] is -0.241; in assay [6], -0.202.

Consider “M-Ficolin G221F (Homo sapiens) (chain not printed)”, for which the “glycan array binding signal (z-score)” value in assay [7] is -0.171.

Regarding MBP (Homo sapiens) (chain not printed), the “glycan array binding signal (z-score)” value in assay [7] was -0.305.
